This sample is rich in variants without activity.
B1: TPR 5TU (parent)
chain: GGAUCUUCUCGAUCUAACAAAAAAGACAAAUCUGCCACAAAGCUUGAGAGCAUCUUCGGAUGCAGAGGCGGCAGCCUUCGGUGGCGCGAUAGCGCCAACGUUCUCAACUAUGACACGCAAAACGCGUGCUCCGUUGAAUGGAGUUUAUCAUG

Variants of: B1
Test: polymerase ribozyme fitness, log enrichment relative to wild type (log ratio); higher = more active; in vitro selection for triplet polymerase activity
Summary of the method: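 Libraries of mutants in each subunit of a heterodimeric triplet polymerase ribozyme were generated by PCR and transcribed. In triplicate, each went through one in vitro selection round: annealing with biotinylated primer, partner subunit and triplets; frozen incubation at −7 °C; gel excision of extended constructs; streptavidin-bead capture; RT-PCR. Fitness, taken from Illumina sequencing of input and output libraries, is the logarithm of a genotype's enrichment over wild-type enrichment, averaged across replicates with inverse-variance weights. The logarithm is base 2, and genotypes needed ≥10 input reads and ≥1 read per output to be kept.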

A28U G46A C105G and A28U U53A A73G A110C cannot be ordered by “polymerase ribozyme fitness (log ratio)” value: at most -4.2 for the first, at most -4.2 for the second.

A29G G58C A64G G92U C131G and A29C C51G C57G G92C A107C A110C G124A U145A U151G cannot be ordered by “polymerase ribozyme fitness (log ratio)” value: at most -4.2 for the first, at most -4.2 for the second.

A29G A41G U56A C93U U145A and A28C C57U G74A C103U A113U cannot be ordered by “polymerase ribozyme fitness (log ratio)” value: at most -4.2 for the first, at most -4.2 for the second.

A29U C32A G46A G68A G83A U90G C149G and A28U U77G G94U G136U U139C cannot be ordered by “polymerase ribozyme fitness (log ratio)” value: at most -4.2 for the first, at most -4.2 for the second.

A29G U111A and C27U U53A G80U C87G A121U cannot be ordered by “polymerase ribozyme fitness (log ratio)” value: at most -4.2 for the first, at most -4.2 for the second.

A29U A52U U61A C63U C69U C75A A97U and A28G G92U cannot be ordered by “polymerase ribozyme fitness (log ratio)” value: at most -4.2 for the first, at most -4.2 for the second.

A28U G67A G80U and C27U C114U U151G cannot be ordered by “polymerase ribozyme fitness (log ratio)” value: at most -4.2 for the first, at most -4.2 for the second.

Going from A28U A66C G83U A122G to A28U A47C G88C U144C, the “polymerase ribozyme fitness (log ratio)” value falls from -4.16 to at most -4.2.

A28U G67U C85A C118U A122C G128U and A29U A52G A73U A91C G92A U130A cannot be ordered by “polymerase ribozyme fitness (log ratio)” value: at most -4.2 for the first, at most -4.2 for the second.

Compared with C27U A122G, C27U G92U G100A A106C G124C A138G is lower in “polymerase ribozyme fitness (log ratio)” value: -2.4 for the first, at most -4.2 for the second.

C27U A39U A52G C57G G58C A64C C72A C103G and A29U A91U C123G cannot be ordered by “polymerase ribozyme fitness (log ratio)” value: at most -4.2 for the first, at most -4.2 for the second.

A29C C35A U56A C93A and A29U A39G C103G A137U cannot be ordered by “polymerase ribozyme fitness (log ratio)” value: at most -4.2 for the first, at most -4.2 for the second.

Compared with A29C G58U, A28U U90G C99U G141U U151G is lower in “polymerase ribozyme fitness (log ratio)” value: -4.16 for the first, at most -4.2 for the second.

A28U C93U G141U and A28U G58A G83C A97G C105A G143U cannot be ordered by “polymerase ribozyme fitness (log ratio)” value: at most -4.2 for the first, at most -4.2 for the second.

A29U A52C C57U C95U A120U C125U and A29C U31A A41G C57A C96U U102C G143A cannot be ordered by “polymerase ribozyme fitness (log ratio)” value: at most -4.2 for the first, at most -4.2 for the second.

C27U G48C C85U A97G G140C A142C and A29G G58C G92A U101A C108G A122C C125G cannot be ordered by “polymerase ribozyme fitness (log ratio)” value: at most -4.2 for the first, at most -4.2 for the second.

First: A29G G42A G81A C85U
Second: A28C C54G C79G C85G U145A
The “polymerase ribozyme fitness (log ratio)” value of the first is higher: -4.09 for the first, at most -4.2 for the second.

A29C A37U G42C U56G G84A and C27G U61A C79G C87G cannot be ordered by “polymerase ribozyme fitness (log ratio)” value: at most -4.2 for the first, at most -4.2 for the second.

C27U C32G C36U C87G and A28U A39G A66G C76A G81C cannot be ordered by “polymerase ribozyme fitness (log ratio)” value: at most -4.2 for the first, at most -4.2 for the second.

A29U A49C C79A G81U C95U U102C C105A A113G G117U and A28U A52G C85U G88A C95G U109G cannot be ordered by “polymerase ribozyme fitness (log ratio)” value: at most -4.2 for the first, at most -4.2 for the second.

C27U G48A G128A and A29C G42C C72U C76A G86U C93G G136U cannot be ordered by “polymerase ribozyme fitness (log ratio)” value: at most -4.2 for the first, at most -4.2 for the second.

C27U C54U C69A C76U G83A and A28C C43A G62A C69G C93G C95G cannot be ordered by “polymerase ribozyme fitness (log ratio)” value: at most -4.2 for the first, at most -4.2 for the second.

A29C A37C G92C C99U and A28G A29U C43G A47C G84U A110U cannot be ordered by “polymerase ribozyme fitness (log ratio)” value: at most -4.2 for the first, at most -4.2 for the second.

A28G G50A C93A A98U U104G and A29G U31A C43G cannot be ordered by “polymerase ribozyme fitness (log ratio)” value: at most -4.2 for the first, at most -4.2 for the second.

Going from C27U G92U to A28U G58U C103G C116A A137C, the “polymerase ribozyme fitness (log ratio)” value falls from -1.78 to at most -4.2.

A28C A106G C129G U151C and C27U U53A C85A A110G U135G cannot be ordered by “polymerase ribozyme fitness (log ratio)” value: at most -4.2 for the first, at most -4.2 for the second.

A28U U53A and A28C A41C G84C C93U C118G C123G cannot be ordered by “polymerase ribozyme fitness (log ratio)” value: at most -4.2 for the first, at most -4.2 for the second.

Compared with C27U A37U C99G, A28G A138C C149A is lower in “polymerase ribozyme fitness (log ratio)” value: -3.64 for the first, at most -4.2 for the second.

A28C C35U G42C C76U A91U C108A A110G and A29C G84A U127C G128A C132G U148C C149A cannot be ordered by “polymerase ribozyme fitness (log ratio)” value: at most -4.2 for the first, at most -4.2 for the second.

A28U A137C G140U U144C and C27U U31C U77G G126U U135A cannot be ordered by “polymerase ribozyme fitness (log ratio)” value: at most -4.2 for the first, at most -4.2 for the second.

A28U C57G C69A G84C C93U G94C U101C C149U and A28G C32U G86C A115G U144G cannot be ordered by “polymerase ribozyme fitness (log ratio)” value: at most -4.2 for the first, at most -4.2 for the second.

A29C A40G G42C G58A C87U and A28U U139G cannot be ordered by “polymerase ribozyme fitness (log ratio)” value: at most -4.2 for the first, at most -4.2 for the second.

A29U A47C U55G C85G G92A U146A and A28U C32U U33A U56C cannot be ordered by “polymerase ribozyme fitness (log ratio)” value: at most -4.2 for the first, at most -4.2 for the second.

A29G G59U A60U C114U and A29C U90A U145A U148C cannot be ordered by “polymerase ribozyme fitness (log ratio)” value: at most -4.2 for the first, at most -4.2 for the second.

A29G C79A G112C U130G and A28G U44G A91U C99U cannot be ordered by “polymerase ribozyme fitness (log ratio)” value: at most -4.2 for the first, at most -4.2 for the second.

A29C A40G G46A A47U C57U G59A C95A and A29C G50U G81A C95A G133U cannot be ordered by “polymerase ribozyme fitness (log ratio)” value: at most -4.2 for the first, at most -4.2 for the second.

A29C A52C C95U U111A G133U U144A and A28U A49C G58U A60G U61A G84A C105G G141A G152C cannot be ordered by “polymerase ribozyme fitness (log ratio)” value: at most -4.2 for the first, at most -4.2 for the second.

C27U A37C G59A U77C C87U U90G A137U and A28G G42U cannot be ordered by “polymerase ribozyme fitness (log ratio)” value: at most -4.2 for the first, at most -4.2 for the second.

A28G A29G G58A G81A G92U A120C G126A U145A U148A and A28U A47G G50C C95G cannot be ordered by “polymerase ribozyme fitness (log ratio)” value: at most -4.2 for the first, at most -4.2 for the second.

A29G C93U G143U and A29C U90C cannot be ordered by “polymerase ribozyme fitness (log ratio)” value: at most -4.2 for the first, at most -4.2 for the second.

Compared with C27U C95U U102A, A29G U45A C85U G88A A150U is lower in “polymerase ribozyme fitness (log ratio)” value: -2.66 for the first, at most -4.2 for the second.

In the case of C27U G84A, the “polymerase ribozyme fitness (log ratio)” value is reported as -1.66.

Reference: the RNAGym collection of RNA variant scans (doi:10.1073/pnas.2313332121)
